The other results are listed elsewhere or left out.

In this experiment the target is T1, OsWOX13 (Oryza sativa, UniProt Q5QMM3 1-267).
T1 sequence: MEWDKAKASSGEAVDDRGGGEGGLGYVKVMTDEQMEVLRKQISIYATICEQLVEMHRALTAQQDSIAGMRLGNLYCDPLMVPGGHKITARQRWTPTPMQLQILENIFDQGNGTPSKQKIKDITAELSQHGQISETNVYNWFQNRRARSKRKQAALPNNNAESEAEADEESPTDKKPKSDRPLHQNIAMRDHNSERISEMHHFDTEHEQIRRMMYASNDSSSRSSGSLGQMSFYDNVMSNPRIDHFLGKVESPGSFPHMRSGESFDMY
Kind of experiment: protein-binding microarray (RPBM); PBS, 2% BSA, 51.3 ng/ul salmon testes DNA, 50 uM zinc acetate, 200 nM TF, 25 C, 1 h; high values mean tight binding. To be noted: protein: recombinant; tags: N-terminal polyhistidine and DsRed monomer fusion (pET32a); label: CyDye5-dUTP incorporated in the synthesized complementary strand; 3' TTTTT single-stranded linker to array surface; dsDNA, one strand shown. An outline of the steps:
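Transcription factors, each fused N-terminally to a polyhistidine tag and DsRed, were expressed in E. coli BL21-CodonPlus and purified on Ni–NTA. A custom Agilent array was made double-stranded by primer extension with Cy5-dUTP and blocked with 2% BSA. It was incubated with 200 nM protein in PBS, 2% BSA, salmon testes DNA and 50 µM zinc acetate at 25 °C for 1 h, then washed. The binding signal is per-feature fluorescence intensity (arbitrary units) read on an Axon 4000B scanner.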
For “CACATTGATGTGCAATCTGCAAATCCGGCGCCAAATTTACCGGAGTCACCTAGTGCAG”, the binding signal was 5260 fluorescence intensity (a.u.).

On to “TGATTGATCATTGTACATCTATTAGTCCTGTTGTTCCATCCGGAGTCACCTAGTGCAG”, for which the binding signal is 9270 fluorescence intensity (a.u.).

Turning to “TTTTGTTTATTACGTGCATAATAGGCTAATTATGCAAGAACGGAGTCACCTAGTGCAG”, the binding signal was 5150 fluorescence intensity (a.u.). “CGCTCGCGACAATTAATGTATAATACGTAATTACGTATACCGGAGTCACCTAGTGCAG”: the binding signal is 5400 fluorescence intensity (a.u.). Turning to “ATGGGCCCCGCTACATTGATTGGGCCACGTTGGGTCTTGGCGGAGTCACCTAGTGCAG”, the binding signal is 4520 fluorescence intensity (a.u.). Then “TCACTTATCACTAAAAGAATAATTAGTTGTAAATGTGAGCCGGAGTCACCTAGTGCAG”, with 3200 fluorescence intensity (a.u.). Consider “CGCGCCAATCATCTCCCGCTCCCTCTTATCCTCCCCTCTCCGGAGTCACCTAGTGCAG”, for which the binding signal is 14100 fluorescence intensity (a.u.). Consider “CTTGATTAATCCGTACGTCTATCAACTCAGCCCGAAACGCCGGAGTCACCTAGTGCAG”, for which the binding signal is 46200 fluorescence intensity (a.u.). The value for “TTTGTGCTAATTACCTATTTGCAATATTTAGATTGCATCTCGGAGTCACCTAGTGCAG” was 15300 fluorescence intensity (a.u.). In the case of “TGAGATAATAGACGCGTGCTTTGCAGAGTGATCCAAAGCTCGGAGTCACCTAGTGCAG”, the binding signal was 3350 fluorescence intensity (a.u.). Consider “AGATAAAATGAGTAATCATCTGTCTAACATGTCACACCAGCGGAGTCACCTAGTGCAG”, for which the binding signal was 11800 fluorescence intensity (a.u.).

Take “CGTGCAATTTATCGTTGATCGATCGAATCGTGGTGAAGAACGGAGTCACCTAGTGCAG”: the binding signal was 4200 fluorescence intensity (a.u.). Turning to “TATGACAGGTTGATGTGATGGAAAAGAACTGAAGTTTGGACGGAGTCACCTAGTGCAG”, the binding signal is 20900 fluorescence intensity (a.u.).

As to “CTTGGATTTAATTGCTCGTGCATATGTTTTCAGATGTCAGCGGAGTCACCTAGTGCAG”, the binding signal is 21700 fluorescence intensity (a.u.). As for “AAATTTGACAGATGTAATTACAGTACATCAATTGAAGTGTCGGAGTCACCTAGTGCAG”, the binding signal is 43500 fluorescence intensity (a.u.).

Regarding “TCCCTTATTTTCTTGCGCAATCATTACCCACAACCTCAAACGGAGTCACCTAGTGCAG”, the binding signal was 3290 fluorescence intensity (a.u.). As for “TAGTAATTGTTATATACAGATCATATTCGTAGTACTACTTCGGAGTCACCTAGTGCAG”, the binding signal is 12400 fluorescence intensity (a.u.). In the case of “GAAATGATGGCTTTCTTTGATTTCCTTTGCTAGCTTACTTCGGAGTCACCTAGTGCAG”, the binding signal is 3730 fluorescence intensity (a.u.).

Consider “CATGACTTGGATAAATTAGCGTCATCTTTGTCCCCAATGCCGGAGTCACCTAGTGCAG”, for which the binding signal is 16300 fluorescence intensity (a.u.).

For “TAACTGATTACTCATTCGTTCTTAAAATATATAGCAATCTCGGAGTCACCTAGTGCAG”, the binding signal was 12100 fluorescence intensity (a.u.).

Consider “CCGTCACATTGTTTCAATTTCAATCAAACTTTTAATTTTACGGAGTCACCTAGTGCAG”, for which the binding signal is 6870 fluorescence intensity (a.u.).

On to “AGCGTATTCACATATTTAATTAATATTTATAGATATCACGCGGAGTCACCTAGTGCAG”, for which the binding signal was 5290 fluorescence intensity (a.u.). Regarding “TTTCAATTATATACGTAGAAGTATTATGGACCAGACCTCCCGGAGTCACCTAGTGCAG”, the binding signal is 3320 fluorescence intensity (a.u.).
